The supplement of paper PMC12217912
The other results are listed elsewhere or left out. The full chains were built here from the parent and the listed change. Values near 0.05 are background.

B1: TEV protease; numbered along this chain (parent)
chain: MGESLFKGPRDYNPISSSICHLTNESDGHTTSLYGIGFGPFIITNKHLFRRNNGTLVVQSLHGVFKVKDTTTLQQHLVDGRDMIIIRMPKDFPPFPQKLKFREPQREERICLVTTNFQTKSMSSMVSDTSCTFPSGDGIFWKHWIQTKDGQCGSPLVSTRDGFIVGIHSASNFTNTNNYFTSVPKNFMELLTNQEAQQWVSGWRLNADSVLWGGHKVFMVKPEEPFQPVKEATQL

Variants of: B1
Test: raw area under fraction-flipped curve 0-4 h after induction (AUC4h, not background-subtracted), DNA-recorder readout of cleavage of the substrate (dimensionless); higher = more cleavage of the substrate by the protease variant
Settings: temperature: 34 °C; time window: 0-4 h after rhamnose induction
Procedure: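 In vivo DNA recorder in E. coli TOP10(DE3) ΔrhaA at 34 °C. Each TEVp single-site mutant (parent TEVp 0) is paired with a single-site variant of the 7-mer TEVs (canonical ENLYFQ|S). The substrate sits between flexible linkers in a Bxb1-sfGFP-TEVs-SsrA fusion, so cleavage stabilises Bxb1 and speeds flipping of a recombination array, read by NGS. The value is the raw area under the fraction-flipped curve over 0-4 h after rhamnose induction (AUC4h), with ≥20 reads per time point. It is not background-subtracted; inactive controls average about 0.047.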
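Further: Bxb1 expression induced with 0.2% (w/v) L-rhamnose at OD600 near 0.5, cultures sampled hourly, flipped fraction per protease–substrate barcode pair counted by paired-end Illumina sequencing.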

| Variant | area with substrate ENLAFQS | area with substrate ENLDFQS | area with substrate ENLEFQS | area with substrate ENLFFQS | area with substrate ENLHFQS | area with substrate ENLIFQS | area with substrate ENLKFQS | area with substrate ENLLFQS | area with substrate ENLMFQS | area with substrate ENLNFQS |
| --- | --- | --- | --- | --- | --- | --- | --- | --- | --- | --- |
| MGESLFKGPRDYNPISSSICHLTNESDGHTTSLYGIGFGPFIITNKHLFRRNNGTLVVQSLHGVFKVKDTTTLQQHLVDGRDMIIIRMPKDFPPFPQKLKFREPQREERICLVTTNFQTKSMSSMVSDTSCTFPSGDGIFWKHWIQTKDGQCGSPLVSTRDGFIVGIHSASNFTNTNNYFTSVPKNFMELLTNQEAQQWVSGWRLNADSVLWGGHKVFMVKPEEPFQPVKEAFQL [T233F] | 0.0762 | 0.0609 | 0.0626 | 0.0769 | 0.08 | 0.0852 | 0.0802 | 0.0929 | 0.0572 | 0.0788 |
| MGESLFKGPRDYNPISSSICHLTNESDGHTTSLYGIGFGPFIITNKHLFRRNNGTLVVQSLHGVFKVKDTTTLQQHLVDGRDMIIIRMPKDFPPFPQKLKFREPQREERICLVTTNFQTKSMSSMVSDTSCTFPSGDGIFWKHWIQTKDGQCGSPLVSTRDGFIVGIHSASNFTNTNNYFTSVPKNFMELLTNQEAQQWVSGWRLNADSVLWGGHKVFMVKPEEPFQPVKEAVQL [T233V] | 0.0676 | 0.0692 | 0.0599 | – | – | – | – | – | – | – |
| MGESLFKGPRDYNPISSSICHLTNESDGHTTSLYGIGFGPFIITNKHLFRRNNGTLVVQSLHGVFKVKDTTTLQQHLVDGRDMIIIRMPKDFPPFPQKLKFREPQREERICLVTTNFQTKSMSSMVSDTSCTFPSGDGIFWKHWIQTKDGQCGSPLVSTRDGFIVGIHSASNFTNTNNYFTSVPKNFMELLTNQEAQQWVSGWRLNADSVLWGGHKVFMVKPEEPFQPVKEATEL [Q234E] | 0.0649 | 0.0668 | – | 0.0772 | 0.0713 | – | 0.0837 | 0.0809 | 0.0695 | 0.0696 |
| MGESLFKGPRDYNPISSSICHLTNESDGHTTSLYGIGFGPFIITNKHLFRRNNGTLVVQSLHGVFKVKDTTTLQQHLVDGRDMIIIRMPKDFPPFPQKLKFREPQREERICLVTTNFQTKSMSSMVSDTSCTFPSGDGIFWKHWIQTKDGQCGSPLVSTRDGFIVGIHSASNFTNTNNYFTSVPKNFMELLTNQEAQQWVSGWRLNADSVLWGGHKVFMVKPEEPFQPVKEATPL [Q234P] | 0.0831 | 0.0527 | – | 0.0951 | – | – | 0.0664 | 0.0675 | – | 0.0714 |
| MGESLFKGPRDYNPISSSICHLTNESDGHTTSLYGIGFGPFIITNKHLFRRNNGTLVVQSLHGVFKVKDTTTLQQHLVDGRDMIIIRMPKDFPPFPQKLKFREPQREERICLVTTNFQTKSMSSMVSDTSCTFPSGDGIFWKHWIQTKDGQCGSPLVSTRDGFIVGIHSASNFTNTNNYFTSVPKNFMELLTNQEAQQWVSGWRLNADSVLWGGHKVFMVKPEEPFQPVKEATQD [L235D] | 0.0775 | – | 0.0891 | 0.0963 | – | – | – | – | – | 0.0512 |
| MGESLFKGPRDYNPISSSICHLTNESDGHTTSLYGIGFGPFIITNKHLFRRNNGTLVVQSLHGVFKVKDTTTLQQHLVDGRDMIIIRMPKDFPPFPQKLKFREPQREERICLVTTNFQTKSMSSMVSDTSCTFPSGDGIFWKHWIQTKDGQCGSPLVSTRDGFIVGIHSASNFTNTNNYFTSVPKNFMELLTNQEAQQWVSGWRLNADSVLWGGHKVFMVKPEEPFQPVKEATQV [L235V] | 0.0675 | 0.0547 | – | 0.0937 | – | – | – | 0.0649 | 0.0791 | 0.0603 |
| MGESLFKGPRDYNPISSSICHLTNESDGHTTSLYGIGFGPFIITNKHLFRRNNGTLVVQSLHGVFKVKDTTTLQQHLVDGRDMIIIRMPKDFPPFPQKLKFREPQREERICLVTTNFQTKSMSSMVSDTSCTFPSGDGIFWKHWIQTKDGQCGSPLVSTRDGFIVGIHSASNFTNTNNYFTSVPKNFMELLTNQEAQQWVSGWRLNADSVLWGGHKVFMVKPEEPFQPVKEATQW [L235W] | 0.0988 | – | – | 0.0925 | 0.0743 | – | 0.0849 | 0.0625 | – | 0.059 |
| MVESLFKGPRDYNPISSSICHLTNESDGHTTSLYGIGFGPFIITNKHLFRRNNGTLVVQSLHGVFKVKDTTTLQQHLVDGRDMIIIRMPKDFPPFPQKLKFREPQREERICLVTTNFQTKSMSSMVSDTSCTFPSGDGIFWKHWIQTKDGQCGSPLVSTRDGFIVGIHSASNFTNTNNYFTSVPKNFMELLTNQEAQQWVSGWRLNADSVLWGGHKVFMVKPEEPFQPVKEATQL [G2V] | – | – | 0.0814 | 0.0946 | 0.0921 | 0.0897 | – | – | – | – |
| MWESLFKGPRDYNPISSSICHLTNESDGHTTSLYGIGFGPFIITNKHLFRRNNGTLVVQSLHGVFKVKDTTTLQQHLVDGRDMIIIRMPKDFPPFPQKLKFREPQREERICLVTTNFQTKSMSSMVSDTSCTFPSGDGIFWKHWIQTKDGQCGSPLVSTRDGFIVGIHSASNFTNTNNYFTSVPKNFMELLTNQEAQQWVSGWRLNADSVLWGGHKVFMVKPEEPFQPVKEATQL [G2W] | – | – | 0.0548 | 0.102 | – | 0.0912 | 0.105 | 0.0928 | – | – |
| MGESLLKGPRDYNPISSSICHLTNESDGHTTSLYGIGFGPFIITNKHLFRRNNGTLVVQSLHGVFKVKDTTTLQQHLVDGRDMIIIRMPKDFPPFPQKLKFREPQREERICLVTTNFQTKSMSSMVSDTSCTFPSGDGIFWKHWIQTKDGQCGSPLVSTRDGFIVGIHSASNFTNTNNYFTSVPKNFMELLTNQEAQQWVSGWRLNADSVLWGGHKVFMVKPEEPFQPVKEATQL [F6L] | – | 0.0694 | 0.0747 | 0.043 | 0.0747 | – | – | – | – | 0.0501 |

Same assay, conditions: temperature: 34 °C; time window: 0-4 h after rhamnose induction

| Variant | area with substrate ENLPFQS | area with substrate ENLQFQS | area with substrate ENLSFQS | area with substrate ENLWFQS | area with substrate ENLCFQS | area with substrate ENLRFQS | area with substrate ENLVFQS | area with substrate ENLTFQS | area with substrate ENLGFQS |
| --- | --- | --- | --- | --- | --- | --- | --- | --- | --- |
| MGESLFKGPRDYNPISSSICHLTNESDGHTTSLYGIGFGPFIITNKHLFRRNNGTLVVQSLHGVFKVKDTTTLQQHLVDGRDMIIIRMPKDFPPFPQKLKFREPQREERICLVTTNFQTKSMSSMVSDTSCTFPSGDGIFWKHWIQTKDGQCGSPLVSTRDGFIVGIHSASNFTNTNNYFTSVPKNFMELLTNQEAQQWVSGWRLNADSVLWGGHKVFMVKPEEPFQPVKEAFQL [T233F] | 0.0591 | 0.0598 | 0.0644 | 0.0646 | – | – | – | – | – |
| MGESLFKGPRDYNPISSSICHLTNESDGHTTSLYGIGFGPFIITNKHLFRRNNGTLVVQSLHGVFKVKDTTTLQQHLVDGRDMIIIRMPKDFPPFPQKLKFREPQREERICLVTTNFQTKSMSSMVSDTSCTFPSGDGIFWKHWIQTKDGQCGSPLVSTRDGFIVGIHSASNFTNTNNYFTSVPKNFMELLTNQEAQQWVSGWRLNADSVLWGGHKVFMVKPEEPFQPVKEAVQL [T233V] | 0.0482 | – | 0.0616 | 0.068 | – | – | – | – | – |
| MGESLFKGPRDYNPISSSICHLTNESDGHTTSLYGIGFGPFIITNKHLFRRNNGTLVVQSLHGVFKVKDTTTLQQHLVDGRDMIIIRMPKDFPPFPQKLKFREPQREERICLVTTNFQTKSMSSMVSDTSCTFPSGDGIFWKHWIQTKDGQCGSPLVSTRDGFIVGIHSASNFTNTNNYFTSVPKNFMELLTNQEAQQWVSGWRLNADSVLWGGHKVFMVKPEEPFQPVKEATEL [Q234E] | 0.0711 | – | 0.0597 | – | 0.0691 | 0.0751 | – | – | – |
| MGESLFKGPRDYNPISSSICHLTNESDGHTTSLYGIGFGPFIITNKHLFRRNNGTLVVQSLHGVFKVKDTTTLQQHLVDGRDMIIIRMPKDFPPFPQKLKFREPQREERICLVTTNFQTKSMSSMVSDTSCTFPSGDGIFWKHWIQTKDGQCGSPLVSTRDGFIVGIHSASNFTNTNNYFTSVPKNFMELLTNQEAQQWVSGWRLNADSVLWGGHKVFMVKPEEPFQPVKEATPL [Q234P] | 0.043 | 0.0525 | 0.0547 | 0.0711 | – | 0.0665 | 0.0901 | – | – |
| MGESLFKGPRDYNPISSSICHLTNESDGHTTSLYGIGFGPFIITNKHLFRRNNGTLVVQSLHGVFKVKDTTTLQQHLVDGRDMIIIRMPKDFPPFPQKLKFREPQREERICLVTTNFQTKSMSSMVSDTSCTFPSGDGIFWKHWIQTKDGQCGSPLVSTRDGFIVGIHSASNFTNTNNYFTSVPKNFMELLTNQEAQQWVSGWRLNADSVLWGGHKVFMVKPEEPFQPVKEATQD [L235D] | – | 0.0847 | – | – | 0.0917 | – | – | 0.0805 | – |
| MGESLFKGPRDYNPISSSICHLTNESDGHTTSLYGIGFGPFIITNKHLFRRNNGTLVVQSLHGVFKVKDTTTLQQHLVDGRDMIIIRMPKDFPPFPQKLKFREPQREERICLVTTNFQTKSMSSMVSDTSCTFPSGDGIFWKHWIQTKDGQCGSPLVSTRDGFIVGIHSASNFTNTNNYFTSVPKNFMELLTNQEAQQWVSGWRLNADSVLWGGHKVFMVKPEEPFQPVKEATQV [L235V] | – | 0.0673 | – | – | 0.075 | 0.0632 | – | – | – |
| MGESLFKGPRDYNPISSSICHLTNESDGHTTSLYGIGFGPFIITNKHLFRRNNGTLVVQSLHGVFKVKDTTTLQQHLVDGRDMIIIRMPKDFPPFPQKLKFREPQREERICLVTTNFQTKSMSSMVSDTSCTFPSGDGIFWKHWIQTKDGQCGSPLVSTRDGFIVGIHSASNFTNTNNYFTSVPKNFMELLTNQEAQQWVSGWRLNADSVLWGGHKVFMVKPEEPFQPVKEATQW [L235W] | – | – | 0.0198 | – | – | 0.0583 | – | – | – |
| MVESLFKGPRDYNPISSSICHLTNESDGHTTSLYGIGFGPFIITNKHLFRRNNGTLVVQSLHGVFKVKDTTTLQQHLVDGRDMIIIRMPKDFPPFPQKLKFREPQREERICLVTTNFQTKSMSSMVSDTSCTFPSGDGIFWKHWIQTKDGQCGSPLVSTRDGFIVGIHSASNFTNTNNYFTSVPKNFMELLTNQEAQQWVSGWRLNADSVLWGGHKVFMVKPEEPFQPVKEATQL [G2V] | 0.0596 | – | 0.0644 | – | 0.106 | – | – | – | – |
| MWESLFKGPRDYNPISSSICHLTNESDGHTTSLYGIGFGPFIITNKHLFRRNNGTLVVQSLHGVFKVKDTTTLQQHLVDGRDMIIIRMPKDFPPFPQKLKFREPQREERICLVTTNFQTKSMSSMVSDTSCTFPSGDGIFWKHWIQTKDGQCGSPLVSTRDGFIVGIHSASNFTNTNNYFTSVPKNFMELLTNQEAQQWVSGWRLNADSVLWGGHKVFMVKPEEPFQPVKEATQL [G2W] | – | 0.116 | – | – | 0.0691 | – | 0.111 | – | – |
| MGESLLKGPRDYNPISSSICHLTNESDGHTTSLYGIGFGPFIITNKHLFRRNNGTLVVQSLHGVFKVKDTTTLQQHLVDGRDMIIIRMPKDFPPFPQKLKFREPQREERICLVTTNFQTKSMSSMVSDTSCTFPSGDGIFWKHWIQTKDGQCGSPLVSTRDGFIVGIHSASNFTNTNNYFTSVPKNFMELLTNQEAQQWVSGWRLNADSVLWGGHKVFMVKPEEPFQPVKEATQL [F6L] | – | 0.0679 | 0.0641 | – | 0.0654 | – | – | – | 0.0571 |
